The full ranking holds about 33,000 sequences; the median of “E-score (-0.5 to 0.5)” is about -0.016, and the highest 2% start at about 0.32. This is one part of the list.
Biological target: T1, Stp1 (UniProt B3LFK1)
T1 sequence: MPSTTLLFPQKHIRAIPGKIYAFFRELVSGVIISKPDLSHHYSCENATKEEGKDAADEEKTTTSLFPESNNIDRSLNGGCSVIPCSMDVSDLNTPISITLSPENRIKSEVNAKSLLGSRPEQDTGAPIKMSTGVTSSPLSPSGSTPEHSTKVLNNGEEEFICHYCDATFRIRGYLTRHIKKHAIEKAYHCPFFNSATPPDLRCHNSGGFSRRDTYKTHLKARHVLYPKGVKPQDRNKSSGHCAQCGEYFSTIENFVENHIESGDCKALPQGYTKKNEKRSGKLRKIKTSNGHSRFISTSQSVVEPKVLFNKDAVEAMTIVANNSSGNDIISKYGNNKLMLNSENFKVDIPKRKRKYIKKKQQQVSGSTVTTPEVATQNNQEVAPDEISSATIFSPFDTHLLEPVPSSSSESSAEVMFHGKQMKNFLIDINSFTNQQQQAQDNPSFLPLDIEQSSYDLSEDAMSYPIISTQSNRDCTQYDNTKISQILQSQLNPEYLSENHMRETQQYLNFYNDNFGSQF
Assay: PBM E-score (8-mer binding enrichment) (E-score (-0.5 to 0.5)); higher = stronger / more preferred TF binding; most listed sequences are background and not binding sites
Details: protein concentration: 200 nM; construct: GST-full length
Description: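 Universal 'all 10-mer' protein binding microarrays (Agilent AMADID 015681) probed with GST-tagged S. cerevisiae TFs (full-length or DBD) made by in vitro transcription/translation (PURExpress), about 100-200 nM. Bound TF was detected with fluorescent anti-GST. Each ungapped 8-mer (which stands for itself and its reverse complement) is scored by the PBM enrichment score (E-score), a modified Wilcoxon-Mann-Whitney statistic from -0.5 to +0.5, computed with the Universal PBM Analysis Suite. Scale: above 0.35 generally sequence-specific binding.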

| Sequence | PBM E-score |
| --- | --- |
| ATAGTCCA | -0.132 |
| AGCATCAG | -0.0585 |
| CAACAATG | 0.182 |
| CGTTCCCA | -0.0229 |
| CATATTTC | -0.0206 |
| CCGATTGC | 0.12 |
| GTGGACAC | -0.0491 |
| CCCCATAG | -0.104 |
| CCGTCGAA | -0.001 |
| AAATATTA | 0.23 |
| ACGAGGTA | -0.0774 |
| ATCAATCC | -0.107 |
| AGCTCAAG | -0.204 |
| ACACTATG | -0.0259 |
| GGGCAACC | -0.191 |
| ACTTGTAT | -0.019 |
| CCACCGAG | -0.0168 |
| GCGCGAGC | 0.0786 |
| CTATAGGC | -0.207 |
| CTTGAAAG | -0.0964 |
| TACCCAAA | -0.0397 |
| CCGCAAAC | 0.133 |
| CTAAGTCC | -0.329 |
| GCACGCGA | 0.0767 |
| CTCACTCC | -0.155 |

| Sequence | PBM E-score |
| --- | --- |
| GGGGTGAC | -0.31 |
| CTGAGTTC | -0.0476 |
| AAGCAGCG | 0.128 |
| ACAGTCGA | -0.262 |
| AGGTAACA | 0.0444 |
| GAATGAAC | 0.0379 |
| GCAATCCC | -0.0402 |
| AAAAGAAA | 0.121 |
| GCACTACC | 0.14 |
| GAACCCGA | -0.27 |
| CAGAACGC | 0.0775 |
| GCAAACAC | 0.019 |
| CCCTCGGC | -0.14 |
| GAGTCTCC | -0.243 |
| CAAATCTA | 0.12 |
| CGCGAACC | -0.0627 |
| AAGTTTTC | 0.054 |
| CGACAAAG | 0.119 |
| ATTCCTGC | 0.0215 |
| CTGTTCTC | 0.0232 |
| AGACGAAG | -0.0314 |
| CGACGATA | 0.00131 |
| AAATGCAA | 0.0071 |
| AACGTGGA | 0.0192 |
| AAGGGAGT | -0.231 |

| Sequence | PBM E-score |
| --- | --- |
| CATGAAGA | 0.0929 |
| GTCCTATA | -0.108 |
| ACGACTTG | -0.121 |
| GTGTCTAA | -0.0808 |
| ACGCAAAG | -0.12 |
| AAAGTCCT | -0.113 |
| AGCCCACG | -0.0576 |
| ACAACAGC | 0.122 |
| CTGCTTAC | -0.0697 |
| AAAGGGCA | 0.204 |
| CAACTTCA | 0.0223 |
| TGGGAACA | -0.0869 |
| ATAAGACA | 0.0525 |
| CGCGTATC | 0.142 |
| ATTCCGGG | -0.16 |
| AGGTAATC | -0.0107 |
| AGTTCTGA | 0.0581 |
| GGCCATAA | -0.0556 |
| AATACATC | 0.0214 |
| CCGGATAC | -0.108 |
| AGCGGCTC | 0.388 |
| AATCTGGA | 0.0917 |
| AATACGAC | -0.0582 |
| CGAGAGAG | -0.0625 |
| CGAACGAG | -0.126 |

| Sequence | PBM E-score |
| --- | --- |
| GGCGGCCC | 0.0299 |
| AACATTCA | -0.088 |
| GTCGTTGA | -0.0793 |
| CCATTAGG | -0.209 |
| CGACTCAG | -0.156 |
| ATAATCTG | -0.0477 |
| AGGATCAA | 0.0724 |
| ACCCCACC | -0.0383 |
| CAAGATCA | 0.101 |
| AAATCCCT | -0.0485 |
| CTTTCTAA | 0.17 |
| ATACCCCA | -0.0574 |
| ACTTACTA | -0.164 |
| ATTGTGAA | -0.0259 |
| CAAAGGCG | 0.129 |
| TGGGGACA | -0.294 |
| GAGTCTCA | -0.189 |
| AGACATTA | -0.123 |
| CAGCCCCA | -0.0412 |
| CCTATGAA | -0.0412 |
| GGATACAA | -0.00421 |
| GCAAGGTA | -0.00106 |
| CATTATTA | 0.117 |
| ACCTCACA | -0.131 |
| CACCGCGG | 0.146 |

| Sequence | PBM E-score |
| --- | --- |
| ACCTCGAG | 0.0578 |
| CCTTAAAC | 0.00058 |
| CGGACCGA | 0.0676 |
| TCACAAAA | 0.111 |
| CTTGTGTC | 0.045 |
| CCCGGGAC | -0.277 |
| TGGATAAA | 0.0755 |
| ACGTATCC | -0.239 |
| ACACACCC | -0.168 |
| CGTTGTCC | 0.00282 |
| AGCACGGA | 0.114 |
| CCCTGGAA | -0.287 |
| CCAACTCG | -0.152 |
| ACGGGTTA | -0.118 |
| ATGCCAAG | 0.00136 |
| CCCGAGGC | 0.0336 |
| CTATGGCC | -0.108 |
| CCTGCCGA | -0.135 |
| GTACACTA | 0.0132 |
| TCCATAGA | 0.0976 |
| AAGTTACA | 0.0542 |
| ACAAATGG | 0.0385 |
| CTGTACTA | 0.156 |
| CTACACGC | -0.263 |
| AGCTATCC | -0.233 |

| Sequence | PBM E-score |
| --- | --- |
| TAGTGTGA | -0.0256 |
| AGTCGCGA | 0.064 |
| CATACCAC | -0.0115 |
| CCGCGTGC | 0.329 |
| CGTAACTC | -0.115 |
| AGGTTCAT | -0.15 |
| AGAAGACC | -0.162 |
| GATTAAAA | 0.186 |
| CACATGGC | 0.302 |
| CGAATGGA | 0.0462 |
| TGTTTTAA | 0.154 |
| CATACACA | 0.0768 |
| AATTAAAA | 0.142 |
| ACGTTTAC | -0.0777 |
| ATTCCCGA | -0.198 |
| GGGGCGGA | -0.197 |
| TACACTCA | 0.195 |
| ACCCACCA | -0.132 |
| CATCCGGA | -0.27 |
| ATGTCGAA | 0.0831 |
| CTAAAACA | 0.103 |
| AGACTCAA | -0.0693 |
| CATTAGAG | -0.0957 |
| CTTAGAAC | 0.0906 |
| CCTCGGTC | -0.284 |

| Sequence | PBM E-score |
| --- | --- |
| AATGAATG | 0.0827 |
| AAGTGGCG | 0.28 |
| CTGAAGGA | -0.208 |
| CATTCTGG | -0.0532 |
| CTCTAACA | -0.00243 |
| CTCTAGTA | 0.00502 |
| AATTCTTC | 0.0152 |
| ACCACGAT | 0.0192 |
| GCTCGTGA | -0.144 |
| AGTAGTCC | -0.272 |
| GTCCACCA | -0.0303 |
| GCGTGAGC | 0.193 |
| CAGTTTGG | -0.128 |
| CCTCTTTC | -0.249 |
| CATTACAC | 0.143 |
| GGTTCTAA | 0.125 |
| CGATATGC | 0.104 |
| TAAGGAGA | -0.077 |
| ACCGCTAT | -0.152 |
| ATCCACCG | 0.0474 |
| CCCTTGAA | -0.0509 |
| ATGTTTCG | 0.147 |
